Measurements as given in PubChem BioAssay AID445 (National Center for Advancing Translational Sciences (NCATS), 2006).
In all, about 110,000 compounds went through this assay and about 40 (0.04%) were called active. Inconclusive results, whose numbers are uncertain, are shown with a selection of clear calls. The call rests on the fitted dose curve; in most records, active means well fitted curve in the direction sought with a large enough effect in the signal ratio (not every such curve was filed as active); inconclusive means small, poorly fitted or top-dose-only effect, or a change in a side signal; inactive means flat fitted curve, though single readings scatter; the % refers to the signal ratio. Where the call is inconclusive, the potency comes from a doubtful curve fit.

Experiment: IkB Signaling;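 on IkBa stabilization activation: 0% = basal untreated cells and 100% = reference inhibitor full response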
Conditions: ABC-DLBCL IkBa-CBG/CBR dual luciferase ratio (green luciferase fused to IkBa over red control in OCI-Ly3 lymphoma cells), 4 h; IkBa stabilization activation: at 57.1 µM (top of the series), scaled: untreated 0%, proteasome inhibitor 100% unless noted
In short: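 In this assay, an IκBα–CBG68 fusion accumulates when IKK-driven degradation is blocked; native CBR normalizes for cell number. OCI-Ly3 cells were treated 4 h with compound and doxycycline, then green and red light read after Chroma-Glo addition.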
Potency means the concentration at half of the fitted maximal effect.

Compound | IkBa stabilization activation | Potency
O=C(c1csnn1)N1CCC[C@@]2(CCN(c3ccccc3)C2)C1 | inactive: 0.952% [at 11.4 µM, scaled: untreated 0%, proteasome inhibitor 100%] | –
O=C(O)C1(C(=O)O)CCN(S(=O)(=O)c2ccccc2)CC1 | inactive: 2.1% [at 11.4 µM, scaled: untreated 0%, proteasome inhibitor 100%] | –
Nc1ccc2oc(-c3ccccc3Br)nc2c1 | inactive | –
Cc1nc(NCCCn2ccnc2)c2oc3ccccc3c2n1 | inactive | –
CCOc1ccc(NC(=O)c2ccccc2CO)cc1 | inconclusive: 8.46% [signal inhibitor] | –
CC(=O)N1CCN(c2ccc(NC(=O)c3ccc(C(C)(C)C)cc3)cc2)CC1 | inconclusive: 0.731% [signal inhibitor] | –
COC(=O)c1sccc1S(=O)(=O)N(CC(=O)Nc1ccccc1C)c1ccc(Cl)cc1 | inconclusive: 5.29% [signal inhibitor] | –
CC[C@@H]1CN2CCc3cc(OC)c(OC)cc3[C@H]2C[C@@H]1C[C@@H]1NCCc2cc(OC)c(OC)cc21 | – | inconclusive: 398 nM [signal inhibitor, full curve]
COc1ccccc1-c1nc2c(c(SCc3cc(C)ccc3C)n1)Cc1c(CO)cnc(C)c1O2 | inactive | –
CCCNC(=O)Cn1nc(-c2ccc(C)c(C)c2)c2cnc3ccc(OC)cc3c21 | inactive | –
CN1CCc2cccc3c2[C@H]1Cc1ccc(O)c(O)c1-3 | inactive | –
COc1ccc2oc(=O)c(C(=O)NCCc3c(C)[nH]c4ccc(C)cc34)cc2c1 | inconclusive: 3.62% [signal inhibitor] | –
CCn1nc(C(=O)OCC(=O)c2cc(C)n(Cc3cccs3)c2C)c2ccccc2c1=O | inactive | –
O=C(Nc1ccccc1-c1nnn(CC(=O)N2CCCc3ccccc32)n1)c1ccco1 | – | inconclusive: 794 nM [signal inhibitor, full curve]
Cc1ccc(NC(=O)C2CCCN(C(=O)c3cnn(-c4ccccc4)c3-n3cccc3)C2)cc1 (centres undefined) | inactive | –
COc1cc(-c2nnc3sc(C4CCCCC4)nn23)cc(OC)c1OC | inactive | –
Cc1nn(-c2ccccc2)c(-n2cccc2)c1C(=O)N1CCN(c2ccccc2)CC1 | inconclusive: 1.42% [signal inhibitor] | –
Cc1cc(OCC(=O)N(Cc2ccc(N(C)C)cc2)Cc2ccco2)cc(C)c1Cl | inconclusive: -0.207% [signal inhibitor] | –
CCOC(=O)c1ccc(OC(=O)c2cn(-c3ccc(C)cc3)c(=O)c3ccccc23)cc1 | inconclusive: 0.991% [signal inhibitor] | –
